From PubChem BioAssay AID485281 (National Center for Advancing Translational Sciences (NCATS), 2010)
Screen size: about 350,000 compounds; about 260 (0.074%) were called active. This list was built around the results that the source calls inconclusive (neither active nor inactive); the mix of calls is not that of the screen. Calls follow the shape of the dose curve; as a rule, active = well fitted inhibition curve with a large enough effect; inconclusive = small, poorly fitted or top-dose-only effect; inactive = no such curve, though single readings can be large or run the other way. Potencies of inconclusive entries are doubtful fits and often do not repeat.

molecular target: Ferritin light chain (Equus caballus) (UniProt P02791); assay: qHTS Assay for Identification of Novel General Anesthetics; settings: apoferritin/1-aminoanthracene competitive binding, fluorescence; activity change, negative = displacement: at 77.5 µM (top of the series); also: nearly all actives have a fitted effect of over 20% in size
Summary of the method: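 Concentration-response curves derived by four-parameter Hill fitting of normalized fluorescence, where compounds displaced 1-AMA from 10 uM horse apoferritin following a brief 10 min room-temperature incubation; propofol titration acted as positive control.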
% is scaled to controls: 0 for no effect and ±100 for the full control effect; potency is read from the fitted curve at half-maximal effect; tags tell the direction and shape of the fitted curve.

UniProt P02791, sequence (P02791 whole entry, looked up): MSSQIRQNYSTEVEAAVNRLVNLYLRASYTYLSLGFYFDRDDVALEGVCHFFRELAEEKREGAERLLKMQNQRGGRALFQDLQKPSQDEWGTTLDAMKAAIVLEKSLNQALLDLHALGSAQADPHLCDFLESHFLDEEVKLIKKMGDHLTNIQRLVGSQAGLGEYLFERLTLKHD

SMILES	Potency	activity change, negative = displacement
CCOc1cccc2cc(-c3csc(NC(=O)CCC(=O)NCCN4CCCCC4C)n3)c(=O)oc12 (configuration not stated)	inconclusive: 39.8 µM [inhibitor, single point]	
COc1cccc2c1OC(=O)CC2c1ccc(C)cc1 (configuration not stated)	inconclusive: 39.8 µM [inhibitor, single point]	
COc1ccc(OCc2cc(C(=O)N3C[C@H]4CC[C@H]3C4)no2)c(Cl)c1	inconclusive: 44.7 µM [inhibitor, single point]	
CC(=O)Nc1cc(C(=O)N2CCc3ccccc3C2)ccc1Sc1ccc(C)cc1	inconclusive: 50.1 µM [inhibitor, single point]	
CN(C)S(=O)(=O)N1CCCC(C(=O)c2ccc(-c3ccccc3)c(F)c2)C1 (configuration not stated)	inconclusive: 31.6 µM [inhibitor, partial curve]	
COc1ccc(C2(CNC(=O)c3ccc(OC)c([N+](=O)[O-])c3)CCCCC2)cc1OC	inconclusive: 35.5 µM [inhibitor, single point]	
Cc1ccc(Nc2nnc(SCC3CCCCO3)s2)cc1 (configuration not stated)	inconclusive: 44.7 µM [inhibitor, partial curve]	
N#Cc1ccc(N2Cc3ccccc3C2=NC(=O)c2cccnc2Cl)cc1		inactive: 2.7%
CCC(C)c1ccc(NC(=S)Nc2ccc(OC)cc2)cc1 (configuration not stated)	inconclusive: 31.6 µM [inhibitor, single point]	
O=C(CSc1ccc2c(c1)OCCO2)Nc1ccc2c(c1)OCO2	inconclusive: 44.7 µM [inhibitor, partial curve]	
CCN(CC)S(=O)(=O)c1ccc2oc(C(=O)NCc3ccccc3OC)c(C)c2c1	inconclusive: 3.55 µM [inhibitor, partial curve]	
C=CSc1sc(Cl)c(N2CCOCC2)c1[N+](=O)[O-]	inconclusive: 31.6 µM [inhibitor, partial curve]	
Cc1ccc(C)c(N2CCN(C(=O)c3cc(S(=O)(=O)N4CCCCCC4)cn3C)CC2)c1		inactive: -3.88%
Fc1ccc(CCNC(=S)Nc2ccc(F)c(Cl)c2)cc1	inconclusive: 39.8 µM [inhibitor, single point]	
OC1(C(F)(F)F)CC(O)(C(F)(F)F)n2nc(-c3ccccc3)cc2N1 (configuration not stated)	inconclusive: 50.1 µM [inhibitor, single point]	
COc1ccc(S(=O)(=O)N(CC(C)C)CC(C)C)c2cccnc12	inconclusive: 35.5 µM [inhibitor, partial curve]	
COc1cccc(CNc2ccc(C)c(Cl)c2)c1	inconclusive: 5.62 µM [inhibitor, full curve]	
C=CCN(Cc1nc(-c2cc(OC)ccc2OC)oc1C)C1CCS(=O)(=O)C1 (configuration not stated)	inconclusive: 44.7 µM [inhibitor, single point]	
Cc1ccc2cc(CN(Cc3ccc4c(c3)OCO4)Cc3nnnn3Cc3ccco3)c(=O)[nH]c2c1C		inactive: 6.25%
O=S1(=O)NCC23CCC(CC21)O3 (configuration not stated)		inactive: -4.83%
Cc1nc(N2CCOCC2)c2c(C)c(C(=O)Nc3ccc(C(F)(F)F)cc3)sc2n1	inconclusive: 28.2 µM [inhibitor, partial curve, poor fit]	
c1ccc(CN2C3=NCCCN3c3ccccc32)cc1		inactive: -16%
Cc1ccc(CN=C2Nc3ccccc3CS2)cc1	inconclusive: 11.2 µM [inhibitor, partial curve]	

SMILES	Potency	activity change, negative = displacement
Cc1ccc(/C=N/NC(=O)CC(=O)NCc2cccnc2)cc1	inconclusive: 15.8 µM [inhibitor, partial curve]	
COc1ccc(-c2nc(SCC(=O)N3CCCCC3C)n[nH]2)cc1 (configuration not stated)	inconclusive: 7.94 µM [inhibitor, partial curve]	
CCc1cccc2c(C(=O)C(NC(C)CC)c3ccccc3)c[nH]c12 (configuration not stated)	inconclusive: 35.5 µM [inhibitor, single point]	
CCOC(=O)c1c(C)sc(-c2c(-c3ccc(OC)c(F)c3)[nH]c3[nH]c(=O)[nH]c(=O)c23)c1O	inconclusive: 11.2 µM [inhibitor, partial curve]	
CCOC(=O)c1c(-c2ccc(OC)cc2)oc2ccc(OCC(N)=O)cc12		inactive: -2.51%
COc1cc(C(=O)N/N=C/c2ccc(OC(=O)c3cccc(C)c3)cc2)ccc1O	inconclusive: 35.5 µM [inhibitor, single point]	
COc1ccccc1CN1CCC(CNC(=O)c2cnn(-c3ccc(Cl)cc3)c2C2CCN(C(=O)OC(C)(C)C)CC2)CC1	inconclusive: 4.47 µM [inhibitor, full curve, poor fit]	
O=C(NCCCO)Nc1ccc2nc(-c3ccco3)c(-c3ccco3)nc2c1		inactive: 674%
Cc1ccc(N=C2NC(=O)/C(=C/c3cccn3C)S2)cc1C	inconclusive: 50.1 µM [inhibitor, single point]	
COc1ccc2[nH]cc(CCNC(=O)CCC3CCCCC3)c2c1	inconclusive: 39.8 µM [inhibitor, single point]	
O=C(COC(=O)C12CC3CC(CC(C3)C1)C2)NCCc1ccccc1	inconclusive: 31.6 µM [inhibitor, partial curve]	
Cc1ccc(N=Nc2c(C)[nH][nH]c2=O)c(C)c1	inconclusive: 22.4 µM [inhibitor, partial curve]	
C=CCNC(=S)NN=C1CCCCCCC1	inconclusive: 12.6 µM [inhibitor, partial curve]	
S=C(Nc1ccc(Cc2ccncc2)cc1)Nc1cccc(Cl)c1	inconclusive: 31.6 µM [inhibitor, single point]	
CCSc1nnc(NC(=O)C2Cc3ccccc3CN2C(=O)c2ccco2)s1 (configuration not stated)	inconclusive: 22.4 µM [inhibitor, partial curve]	
Oc1ccc(C2C[C@H]3CC[C@@H]2C3)cc1O (some centres not stated)	inconclusive: 20 µM [inhibitor, partial curve]	
Cc1ccc(OCc2cc(C(=O)N3CCc4sccc4C3)no2)cc1C	inconclusive: 7.94 µM [inhibitor, single point]	
CCOc1ccc(OCC)c(NC(=O)Nc2ccc3c(c2)N(C)C(=O)CS3)c1		inactive: -3.7%
Cc1ccc(NC(=O)Cn2nnc(C(=O)NCc3cccs3)c2N)cc1Cl	inconclusive: 3.55 µM [inhibitor, partial curve]	
CC(=O)c1cccc(NC(=O)CCC2CCCC2)c1	inconclusive: 22.4 µM [inhibitor, partial curve, poor fit]	
Cc1ccc(C(=O)Nc2ccc(C(=O)N3CCCCC3)cc2)cc1	inconclusive: 22.4 µM [inhibitor, partial curve]	
CC1CCC(C(C)C)C(OP(=O)(c2ccccc2)C(O)c2ccncc2)C1 (configuration not stated)	inconclusive: 35.5 µM [inhibitor, partial curve]	
CCOC(=O)c1c(C)[nH]c(C(=O)C(C)Sc2ccc(Cl)cc2)c1C (configuration not stated)	inconclusive: 4.47 µM [inhibitor, full curve]	

SMILES	Potency	activity change, negative = displacement
O=C(Nc1ccc(NC(=O)c2cccs2)c(Cl)c1)c1ccco1	inconclusive: 25.1 µM [inhibitor, partial curve]	
O=C(NC(=O)c1c(F)cccc1F)Nc1ccccc1SC(F)F		inactive: -11.8%
O=C(CCSCc1ccccc1F)NCc1ccc(F)cc1		inactive: -14.2%
COC(=O)C1=NOC2(C=C(Br)C(OC)=C(Br)C2=O)C1 (configuration not stated)		inactive: -9.94% [at 15.3 µM]
CCOC(=O)C1=C(C)NC(C)=C(C(=O)OCC)C1c1cc(N)ccc1OC(F)F	inconclusive: 50.1 µM [inhibitor, single point]	
NNC(=O)c1sccc1OCc1cccc(C(F)(F)F)c1	inconclusive: 22.4 µM [inhibitor, partial curve]	
Cc1ccc(C(=O)NCc2ccco2)cc1S(=O)(=O)Nc1cccc(Cl)c1	inconclusive: 11.2 µM [inhibitor, partial curve]	
COC(=O)/C(=C\C(=O)c1ccc([N+](=O)[O-])cc1)Nc1ccc(OC)cc1		inactive: 0.722%
CC(C(=O)OCC(=O)Nc1ccc(S(=O)(=O)N2CCCCC2)cc1)N1C(=O)c2ccccc2C1=O (configuration not stated)	inconclusive: 50.1 µM [inhibitor, partial curve]	
O=C1c2ccccc2NC(c2ccccc2O)N1c1ccc(F)cc1 (configuration not stated)		inactive: -6.58%
COc1ccc(NC(=O)COC(=O)c2ccc(S(=O)(=O)N(C)c3ccccc3OC)cc2)c(OC)c1	inconclusive: 35.5 µM [inhibitor, partial curve]	
COc1ccc(CN2CCNC(=O)C2CC(=O)NC2CC(C)(C)CC(C)(C)C2)cc1OC (configuration not stated)	inconclusive: 17.8 µM [inhibitor, partial curve]	
C=CC[n+]1ccc(/C=C2\C=Cc3cc(C)ccc3N2CC)c2ccccc21	inconclusive: 31.6 µM [inhibitor, partial curve]	
Cn1c(C(=O)NCc2cccnc2)cc2sccc21		inactive: 2.44%
O=C(NC1CCCC1)C(c1ccncc1)N(Cc1ccco1)C(=O)c1ccc(-c2ccccc2)[nH]1 (configuration not stated)	inconclusive: 31.6 µM [inhibitor, partial curve]	
CCCCS(=O)(=O)c1nc(-c2ccc(Br)cc2)cc(-c2ccccc2)c1C#N	inconclusive: 11.2 µM [inhibitor, single point]	
Cc1cccc(NC(=O)CCc2c(C)nc3c(c(C)nn3C(C)(C)C)c2C)c1C		inactive: -8.23%
O=C(O)c1ccc(S(=O)(=O)c2ccc3c(c2)C(=O)N(NC(=O)c2ccc(O)cc2)C3=O)cc1		inactive: -5.5%
COc1ccc(C(=O)Nc2ccc(N3CCOCC3)cc2)cc1OC		inactive: -19.2%
O=C(O)C1C2C=CC(C2)C1C(=O)Nc1ccccc1Br (configuration not stated)	inconclusive: 28.2 µM [inhibitor, partial curve]	
O=C(O)CCCC(=O)Nc1ccc(Sc2ccc([N+](=O)[O-])cc2)cc1	inconclusive: 35.5 µM [inhibitor, partial curve]	
